# Measured values reported in PubChem BioAssay AID686978 (National Center for Advancing Translational Sciences (NCATS), 2013).
# The campaign covered roughly 420,000 compounds. About 64,000 (15%) were called active. The shares of active, inactive and inconclusive entries below differ from those in the screen. The call rests on the fitted dose curve; in most records, active means well fitted inhibition curve with a large enough effect; inconclusive means small, poorly fitted or top-dose-only effect; inactive means flat fitted curve, though single readings scatter. No potency is given beside an inconclusive call; the fits are too rough.
# Test: qHTS for Inhibitors of human tyrosyl-DNA phosphodiesterase 1 (TDP1): qHTS in cells in absence of CPT; further: nearly all actives have a fitted effect of over 55% in size
# Conditions: DT40 Tdp1-/- hTDP1 cells, no CPT, ATP luminescence, 48 h; activity change, negative = growth inhibition: at 46.2 µM (top of the series) unless noted
# In short: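 Seeded 400 DT40-hTDP1 cells/well (vehicle DMSO, no 20 nM CPT); pinned compounds; ≥48 hr at 37 °C; CellTiter-Glo luminescence as viability measure.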
# On the % scale 0 is the no-effect control and ±100 the full control effect; potency means the concentration at half of the fitted maximal effect; tags describe the fitted curve by direction and shape.
Compound,Potency,"activity change, negative = growth inhibition"
Cc1cc(C(=O)NCc2ccccc2Cl)c2c(C)nn(-c3cccc(F)c3)c2n1,active: 20.6 µM,
Cc1cc2occ(CC(=O)N(C)CC(=O)Nc3c(C)cccc3C)c2cc1C,"inconclusive [inhibitor, single point]",
Cc1ccc2oc(=O)n(CCNC(=O)Nc3ccc(Cl)cc3)c2c1,active: 16.4 µM,
COc1ccc(C)cc1NC(=O)n1ncc2cc(Cl)ccc21,inactive,
O=C(NC1CCCC1)c1nc2c(nnn2Cc2cccc(Cl)c2)c(=O)[nH]1,"inconclusive [inhibitor, partial curve, poor fit]",
Cc1cc(NC(=O)CN2CCC(n3nnc4cc(C(F)(F)F)ccc43)CC2)no1,"inconclusive [inhibitor, single point]",
O=C(NCC(c1ccco1)S(=O)(=O)c1cccs1)c1ccc(Cl)cc1 (stereo not given),"inconclusive [inhibitor, single point]",
CNC(=O)n1ccc(C(=O)N2CCCCC2)n1,inactive,
CCOC(=O)N1CCN(c2nc3ccccc3n3cnnc23)CC1,,inconclusive: -31.8% [inhibitor]
COc1ccc2oc(C(=O)N(C)Cc3ccc4c(c3)OCCO4)c(C)c2c1,"inconclusive [inhibitor, single point]",
O=C(O)c1ccc2c(=O)n3c(nc2c1)/C(=C/c1ccccc1OC(F)F)CC3,"inconclusive [inhibitor, single point]",
Cc1ccc(CCNC(=O)C23CN(Cc4ccccc4)CC2C(c2ccc([N+](=O)[O-])cc2)=NO3)cc1 (stereo not given),"inconclusive [inhibitor, single point]",
CC(=O)N1CCc2c(sc3c2c(=O)n(-c2ccc(C)cc2)c(=O)n3Cc2ccccc2C)C1,"inconclusive [inhibitor, single point]",
Cc1cc(C(=O)NNC(=O)c2ccc(C)s2)c(C)o1,inactive,
Cc1cc(C)nc(N2CCCC(C(=O)NCC(c3ccccc3)c3ccccc3)C2)n1 (stereo not given),"inconclusive [inhibitor, partial curve]",
CC(=O)c1cccc(NC(=O)c2ccc(-c3c(C)noc3C)c3ccoc23)c1,"inconclusive [inhibitor, single point]",
O=C(OCCN1C(=O)c2cccc3c(N4CCOCC4)ccc(c23)C1=O)c1cccc(Cl)c1,active: 8.2 µM,
CCCC(=O)c1ccc(N2CCN(C(=O)c3ccccc3)CC2)c(F)c1,"inconclusive [inhibitor, partial curve, poor fit]",
Cc1ccc(C(=O)Nc2ccc3oc(-c4ccccc4C)nc3c2)cc1,"inconclusive [inhibitor, partial curve, poor fit]",
CCn1cc(Br)c(C(=O)Nc2sc3c(c2C(N)=O)CCCC3)n1,inactive,
Cc1sc2nc(CSc3cccc(C(F)(F)F)c3)[nH]c(=O)c2c1C,"inconclusive [inhibitor, partial curve]",
CC1CCN(C(C(=O)Nc2ccc3c(c2)OCO3)c2ccccc2)CC1 (stereo not given),inactive,
O=C(C1=NOC2(C1)C(=O)Nc1ccccc12)N1CCCCC1 (stereo not given),inactive,

Compound,Potency,"activity change, negative = growth inhibition"
Cc1cc(NC(=O)c2cccn2-c2nnc(N3CCCCC3)s2)ccc1Br,"inconclusive [inhibitor, single point]",
CC(CS(=O)(=O)c1ccc2c(c1)NC(=O)CS2)C(=O)NCc1ccccc1Cl (stereo not given),inactive,
O=C(Nc1ccncc1)c1cccc(S(=O)(=O)N2CCOCC2)c1,,inconclusive: -32% [inhibitor]
CC(C)C(=O)OCc1cc(=O)n2nc(C3CC3)sc2n1,inactive,
c1csc(-c2csc3ncnc(NCCCN4CCOCC4)c23)c1,active: 13 µM,
C[C@H](CO)N1C[C@H](C)[C@@H](CN(C)S(C)(=O)=O)Oc2ccc(NC(=O)Cn3cnnn3)cc2C1=O,inactive,
O=C(Nc1cccs1)Nc1ccccc1Br,"inconclusive [inhibitor, single point]",
CCCCCCCCNCCS(=O)(=O)NCc1ccccc1,active: 16.4 µM,
Cc1cc(Cl)ccc1NC(=O)CCCn1nc(C)c2c(C)n(-c3ccccc3)nc2c1=O,"inconclusive [inhibitor, single point]",
COc1ccccc1N1CCN(C(=O)CN(C)S(=O)(=O)c2ccc(C)cc2)CC1,"inconclusive [inhibitor, single point]",
CCN1CCN(c2ccc(S(=O)(=O)N3CCCCC3)cc2NC(=O)/C=C/c2ccc(OC)c(OC)c2)CC1,"inconclusive [inhibitor, single point]",
O=C(c1ccccc1)c1cc2c(cc1[N+](=O)[O-])OCCO2,inactive,
Cc1cc(C)cc(NC(=O)CSc2nc3sc4c(c3c(=O)[nH]2)CCCC4)c1,inactive,
COc1cc(/C=C(\C#N)c2nc3ccccc3[nH]2)cc(Br)c1OCc1ccccc1,active: 20.6 µM,
Cn1cc(S(=O)(=O)Nc2ccc(Oc3ccccc3)cc2)c(=O)n(C)c1=O,inactive,
COc1ccc(-c2oc3cccnc3c2/C=C/c2ccc(OC)c(OC)c2)cc1,"inconclusive [inhibitor, single point]",
Cc1nn(C(=O)c2ccoc2C)c(N)c1-c1ccccc1,"inconclusive [inhibitor, single point]",
CCCCN(CCCC)C(=O)C1(P(=O)(c2ccccc2)c2ccccc2)CCC1,"inconclusive [inhibitor, single point]",
O=C(c1ccc(F)cc1)N1CCN(S(=O)(=O)c2ccc3c(c2)OCCO3)CC1,"inconclusive [inhibitor, single point]",
S=C(NCc1cccnc1)Nc1ccc(Cl)cc1Cl,"inconclusive [inhibitor, single point]",
CN1CCN(c2ccc(NC(=O)COc3ccc4ccccc4c3)cc2)CC1,"inconclusive [inhibitor, partial curve]",
CC(C)C1C(=O)N(Cc2cn(CC3CCCCC3)nn2)CCS(=O)(=O)N1Cc1ccc(-c2cccc(CO)c2)cc1 (stereo not given),active: 8.2 µM,
